Assay results as given in PubChem BioAssay AID1745845 (National Center for Advancing Translational Sciences (NCATS), 2022).
Screen size: about 360,000 compounds; about 2,600 (0.72%) were called active. This list was built around the results that the source calls inconclusive (neither active nor inactive); the mix of calls is not that of the screen. Calls come from the whole dose curve; as a rule, active = well fitted inhibition curve with a large enough effect; inconclusive = small, poorly fitted or top-dose-only effect; inactive = no such curve, though single readings can be large or run the other way. Potencies of inconclusive entries are doubtful fits and often do not repeat.

experiment: Primary qHTS for Inhibitors of ATXN expression; settings: HEK-293 ATXN2-luciferase reporter, luminescence, 24 h; activity change, negative = inhibition: at 57 µM (top of the series); note: nearly all actives have a fitted effect of over 55% in size
Outline: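 ATXN2-luciferase reporter cells (luciferase flanked by upstream and downstream ATXN2 gene portions) were treated 24 h at 37 °C with compounds at up to 57 uM. SteadyGlo luminescence gave expression; GF-AFC fluorescence gave viability.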
% is set by controls: 0 for no effect and ±100 for the full control effect; potency is the fitted concentration of half-maximal effect; tags give direction and shape of the fitted curve.

Structure (SMILES) | Potency | activity change, negative = inhibition
COc1ccc2c(c1)CC(C(=O)NCCCN1CCN(c3ccc(F)cc3)CC1)CO2 (stereo unspecified) | inactive | –
CCOC(=O)C1=C(COC(=O)c2nc(Cl)ccc2Cl)NC(=O)NC1C (stereo unspecified) | inactive | –
Cc1ccc(Cl)cc1N1CCN(c2ncnc3onc(C)c23)CC1 | inconclusive: 7.08 µM [inhibitor, single point] | –
CCOC(=O)C1CCCN(c2nc3c(S(=O)(=O)c4ccc(C)c(C)c4)nnn3c3ccc(Cl)cc23)C1 (stereo unspecified) | inactive | –
Cc1cccc(NS(=O)(=O)c2ccc(C(=O)NCC(C)(C)N3CCOCC3)cc2)c1C | inconclusive: 25.1 µM [inhibitor, partial curve, poor fit] | –
COc1ccc(NC(=O)c2cccn2-c2nnc(N3CCCCC3)s2)cc1 | inactive | –
COc1ccc(C(CCNC(C)c2ccccc2)c2ccc(F)cc2)cc1 (stereo unspecified) | active: 28.2 µM | –
CCN1CCN(c2ccc(Cl)cc2NC(=O)c2ccc(-n3nc(C)cc3C)cc2)CC1 | inconclusive: 20 µM [inhibitor, partial curve] | –
O=C(Nc1ccc(-c2cscn2)cc1)C1CCCN(Cc2ccccc2)C1 (stereo unspecified) | inactive | –
CC(C(=O)Nc1ccccc1Cl)N(c1ccccc1)S(C)(=O)=O (stereo unspecified) | inactive | –
CCc1ccc(OCC(O)CN2CCN(c3ccccn3)CC2)cc1 (stereo unspecified) | – | inconclusive: -50.2% [inhibitor]
Cc1cccc(OCCn2c(=O)sc3ccccc32)c1 | inactive | –
CCOC(=O)C(NS(=O)(=O)c1ccc(C)cc1)(C(F)(F)F)P(=O)(OCC(C)C)OCC(C)C (stereo unspecified) | inconclusive: 37.7 µM [inhibitor, single point] | –
O=C(NCCCN1CCN(c2ccc(F)cc2)CC1)NC12CC3CC(CC(C3)C1)C2 | inconclusive: 20 µM [inhibitor, single point] | –
CC1(C(=O)NS(=O)(=O)c2ccc(Br)cc2)CCN1C(=O)Cc1ccsc1 (stereo unspecified) | inactive | –
Cc1cc(Nc2cccc(Cl)c2)nc2ccc(NC(=O)c3cccnc3)cc12 | inconclusive: 20 µM [inhibitor, partial curve] | –
CCCSCCCNC(=O)c1ccc2nc(Cc3ccccc3)oc2c1 | inconclusive: 7.08 µM [inhibitor, partial curve, poor fit] | –
O=C(N/N=C/c1sc(N2CCOCC2)nc1-c1ccccc1)c1ccc(O)cc1 | – | inactive: -18% [at 11.3 µM]
C=CCn1c(-c2ccoc2C)n[nH]c1=S | inactive | –
Cc1cc(C)c2c(n1)nn1c(N3CCN(c4ccccc4)CC3)cc(C)nc21 | inconclusive: 39.8 µM [inhibitor, single point] | –
CCCCNCC(O)(c1ccc(Cl)cc1)c1ccc(Cl)cc1 | – | inconclusive: -73.9% [inhibitor]
